Test results: article PMC6440744
No constants are given. Whether binding was seen depends on the method and setting. In cells and extracts the contact can be indirect. Some results given as binding are weak or reduced against the parent protein; the word gives no strength.

By UniProt entry, the sequences of proteins in these tests, tags left out. Residues count along the entry.
UniProt P28827, residues 877-1452: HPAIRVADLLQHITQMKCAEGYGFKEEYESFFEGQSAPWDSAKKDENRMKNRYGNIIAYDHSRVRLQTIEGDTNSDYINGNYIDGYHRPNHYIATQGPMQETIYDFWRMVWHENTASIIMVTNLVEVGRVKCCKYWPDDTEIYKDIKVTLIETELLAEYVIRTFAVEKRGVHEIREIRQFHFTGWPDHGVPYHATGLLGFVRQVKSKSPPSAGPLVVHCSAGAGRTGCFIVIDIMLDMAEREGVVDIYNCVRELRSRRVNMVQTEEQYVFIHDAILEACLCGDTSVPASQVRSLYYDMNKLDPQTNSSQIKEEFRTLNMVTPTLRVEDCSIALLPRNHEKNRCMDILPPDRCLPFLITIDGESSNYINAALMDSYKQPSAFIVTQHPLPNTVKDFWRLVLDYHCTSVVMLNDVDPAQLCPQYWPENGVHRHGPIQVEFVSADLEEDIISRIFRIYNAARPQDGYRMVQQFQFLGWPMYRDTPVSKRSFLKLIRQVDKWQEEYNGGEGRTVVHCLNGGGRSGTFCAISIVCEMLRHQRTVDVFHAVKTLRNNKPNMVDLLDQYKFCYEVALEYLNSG
UniProt Q8TEW0: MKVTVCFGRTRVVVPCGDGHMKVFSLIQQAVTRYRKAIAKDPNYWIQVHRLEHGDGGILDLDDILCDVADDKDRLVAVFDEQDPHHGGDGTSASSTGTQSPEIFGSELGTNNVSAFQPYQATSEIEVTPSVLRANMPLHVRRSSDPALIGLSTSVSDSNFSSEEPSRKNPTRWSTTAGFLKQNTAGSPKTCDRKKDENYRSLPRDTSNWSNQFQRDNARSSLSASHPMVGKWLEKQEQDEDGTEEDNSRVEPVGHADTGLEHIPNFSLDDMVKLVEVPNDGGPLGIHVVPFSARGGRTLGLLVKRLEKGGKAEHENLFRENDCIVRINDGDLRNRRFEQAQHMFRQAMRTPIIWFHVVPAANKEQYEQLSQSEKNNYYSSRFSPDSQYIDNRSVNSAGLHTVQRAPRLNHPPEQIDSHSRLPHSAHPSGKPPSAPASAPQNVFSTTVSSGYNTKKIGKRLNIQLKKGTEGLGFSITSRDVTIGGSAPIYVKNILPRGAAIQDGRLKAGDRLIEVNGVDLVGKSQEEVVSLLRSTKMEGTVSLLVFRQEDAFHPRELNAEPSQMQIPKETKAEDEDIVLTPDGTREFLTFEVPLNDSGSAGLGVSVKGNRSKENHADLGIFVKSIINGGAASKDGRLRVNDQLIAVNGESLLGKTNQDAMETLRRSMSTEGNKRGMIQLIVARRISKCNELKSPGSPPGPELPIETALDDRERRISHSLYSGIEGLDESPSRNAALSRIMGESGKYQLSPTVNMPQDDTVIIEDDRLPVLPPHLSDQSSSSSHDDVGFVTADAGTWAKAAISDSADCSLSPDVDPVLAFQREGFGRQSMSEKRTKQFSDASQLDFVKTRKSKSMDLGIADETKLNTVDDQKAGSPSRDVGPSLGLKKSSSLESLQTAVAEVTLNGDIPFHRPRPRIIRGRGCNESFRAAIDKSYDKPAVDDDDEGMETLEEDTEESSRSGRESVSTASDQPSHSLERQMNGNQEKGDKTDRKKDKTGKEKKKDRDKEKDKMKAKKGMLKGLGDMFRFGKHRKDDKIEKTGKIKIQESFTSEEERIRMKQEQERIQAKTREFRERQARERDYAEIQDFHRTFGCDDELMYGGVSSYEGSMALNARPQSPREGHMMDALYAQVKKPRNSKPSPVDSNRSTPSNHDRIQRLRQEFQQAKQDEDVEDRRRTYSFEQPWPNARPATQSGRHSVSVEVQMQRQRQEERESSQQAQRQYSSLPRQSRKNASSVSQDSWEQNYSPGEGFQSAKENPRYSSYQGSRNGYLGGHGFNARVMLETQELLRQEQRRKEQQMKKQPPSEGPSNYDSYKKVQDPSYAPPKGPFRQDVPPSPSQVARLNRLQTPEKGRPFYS

Experiments:
[1] = target: T1, PTPRK ICD-C1089S (substrate-trapping mutant) (human) (UniProt Q15262); test: pull-down; confluent, pervanadate-treated MCF10A lysates treated with CIP to remove protein phosphorylation (20 U/ml at 4°C for 16 hr is told for the D2 experiment), then pull downs with PTPRK C1089S ICD or PTPRK D2; immunoblot; only the target purified
T1 sequence (chain, biotin on the AviTag): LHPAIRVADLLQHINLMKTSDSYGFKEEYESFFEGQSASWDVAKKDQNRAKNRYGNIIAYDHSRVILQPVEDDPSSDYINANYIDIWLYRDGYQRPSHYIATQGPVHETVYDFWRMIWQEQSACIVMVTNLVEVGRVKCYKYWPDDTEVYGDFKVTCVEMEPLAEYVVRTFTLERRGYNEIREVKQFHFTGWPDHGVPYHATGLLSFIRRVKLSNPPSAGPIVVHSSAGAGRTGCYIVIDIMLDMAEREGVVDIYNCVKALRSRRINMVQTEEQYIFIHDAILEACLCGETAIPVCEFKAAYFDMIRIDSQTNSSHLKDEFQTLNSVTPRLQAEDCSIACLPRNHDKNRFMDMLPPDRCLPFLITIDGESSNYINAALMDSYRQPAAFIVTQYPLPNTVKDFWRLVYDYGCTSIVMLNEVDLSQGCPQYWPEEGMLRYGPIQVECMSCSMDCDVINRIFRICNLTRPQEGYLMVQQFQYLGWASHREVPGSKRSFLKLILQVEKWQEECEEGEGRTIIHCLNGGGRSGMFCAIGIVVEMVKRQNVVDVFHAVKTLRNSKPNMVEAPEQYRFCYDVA

[2] = target: PTPRM intracellular domain (ICD) (human) (UniProt P28827); test: pull-down; biotinylated His.TEV.Avi PTPRK, PTPRM or chimeric domains on streptavidin-coated magnetic beads; lysate of confluent, pervanadate-treated MCF10A cells, 1.5 hr at 4°C; immunoblot of inputs, supernatants and pull downs; only the target purified
[3] = target: T1, PTPRK ICD-C1089S (substrate-trapping mutant) (human); test: as above

Measured: binding

PARD3 (from UniProt Q8TEW0 1-1356)
binds: [1] | [2] | [3]

B1: p120^Cat (protein, UniProt O60716 1-968)
chain: MDDSEVESTASILASVKEQEAQFEKLTRALEEERRHVSAQLERVRVSPQDANPLMANGTLTRRHQNGRFVGDADLERQKFSDLKLNGPQDHSHLLYSTIPRMQEPGQIVETYTEEDPEGAMSVVSVETSDDGTTRRTETTVKKVVKTVTTRTVQPVAMGPDGLPVDASSVSNNYIQTLGRDFRKNGNGGPGPYVGQAGTATLPRNFHYPPDGYSRHYEDGYPGGSDNYGSLSRVTRIEERYRPSMEGYRAPSRQDVYGPQPQVRVGGSSVDLHRFHPEPYGLEDDQRSMGYDDLDYGMMSDYGTARRTGTPSDPRRRLRSYEDMIGEEVPSDQYYWAPLAQHERGSLASLDSLRKGGPPPPNWRQPELPEVIAMLGFRLDAVKSNAAAYLQHLCYRNDKVKTDVRKLKGIPVLVGLLDHPKKEVHLGACGALKNISFGRDQDNKIAIKNCDGVPALVRLLRKARDMDLTEVITGTLWNLSSHDSIKMEIVDHALHALTDEVIIPHSGWEREPNEDCKPRHIEWESVLTNTAGCLRNVSSERSEARRKLRECDGLVDALIFIVQAEIGQKDSDSKLVENCVCLLRNLSYQVHREIPQAERYQEAAPNVANNTGPHAASCFGAKKGKDEWFSRGKKPIEDPANDTVDFPKRTSPARGYELLFQPEVVRIYISLLKESKTPAILEASAGAIQNLCAGRWTYGRYIRSALRQEKALSAIADLLTNEHERVVKAASGALRNLAVDARNKELIGKHAIPNLVKNLPGGQQNSSWNFSEDTVISILNTINEVIAENLEAAKKLRETQGIEKLVLINKSGNRSEKEVRAAALVLQTIWGYKELRKPLEKEGWKKSDFQVNLNNASRSQSSHSYDDSTLPLIDRNQKSDKKPDREEIQMSNMGSNTKSLDNNYSTPNERGDHNRTLDRSGDLGDMEPLKGTTPLMQDEGQESLEEELDVLVLDDEGGQVSYPSMQKI
binds: [1] | [2] | [3]
